Reference: paper PMC11995724, “Antibiotic target discovery by integrated phenotypic and activity-based profiling of electrophilic fragments” (Cell chemical biology, 2025)
Screen size: about 3,200 compounds; about 110 (3.4%) showed an effect of 50% or more. The list shows a part of the results.

Tested on: T1, V. cholerae SAD30
T1 construct: SAD30
Set-up: species or system S. aureus MSSA476 (TSB) or V. cholerae SAD30 (LB); 384-well bacterial growth screen at 25 uM, OD600 relative to DMSO control
Details: relative growth, OD600, LB; 25 µM; inhibitor

Row | SMILES | % of control remaining [%]
1 | CC(Cl)C(=O)NC(C)(C(N)=O)c1cccc(Cl)c1 (stereo not drawn) [5-J17, 2-(3-chlorophenyl)-2-(2-chloropropanamido)propanamide] | 94.9879
2 | C=CC(=O)NCC1CCN(C2CC2)CC1 [1-A07, N-[(1-cyclopropylpiperidin-4-yl)methyl]prop-2-enamide] | 88.3408
3 | C=CC(=O)NC1CCN(S(N)(=O)=O)CC1 [1-K18, N-(1-sulfamoylpiperidin-4-yl)prop-2-enamide] | 87.4439
4 | O=C(CCl)Nc1ccc(S(=O)(=O)Nc2nccs2)cc1 [4-B14, 2-chloro-N-{4-[(1,3-thiazol-2-yl)sulfamoyl]phenyl}acetamide] | 105.758
5 | CC(C)c1ccc(CCNC(=O)CCl)cc1 [6-I16, 2-chloro-N-{2-[4-(propan-2-yl)phenyl]ethyl}acetamide] | 91.9139
6 | CC(Cl)C(=O)N1CC(n2cc(C(N)=O)nn2)C1 (stereo not drawn) [5-F21, 1-[1-(2-chloropropanoyl)azetidin-3-yl]-1H-1,2,3-triazole-4-carboxamide] | 101.376
7 | CC(Cl)C(=O)N(Cc1nnc(-c2ccccc2Cl)o1)C1CC1 (stereo not drawn) [5-B17, 2-chloro-N-{[5-(2-chlorophenyl)-1,3,4-oxadiazol-2-yl]methyl}-N-cyclopropylpropanamide] | 85.0688
8 | O=C(CCl)Nc1ccc(Cl)c(S(=O)(=O)N2CCOCC2)c1 [6-K13, 2-chloro-N-[4-chloro-3-(morpholine-4-sulfonyl)phenyl]acetamide] | 92.824
9 | C=CC(=O)N1CC2(CCCC2)CC1CO (stereo not drawn) [2-I19, 1-[3-(hydroxymethyl)-2-azaspiro[4.4]nonan-2-yl]prop-2-en-1-one] | 93.1294
10 | O=C(CCl)N1CCCC1c1ccccc1 (stereo not drawn) [6-M19, 2-chloro-1-(2-phenylpyrrolidin-1-yl)ethan-1-one] | 91.6106
11 | N#CC(=Cc1cn(-c2ccccc2)nc1-c1ccccc1Cl)C(N)=O [8-N18, 3-[3-(2-chlorophenyl)-1-phenyl-1H-pyrazol-4-yl]-2-cyanoprop-2-enamide] | 57.036
12 | O=C(CCl)N1N=C(c2ccccc2)CC1c1ccc2nccnc2c1 (stereo not drawn) [4-A22, 2-chloro-1-[3-phenyl-5-(quinoxalin-6-yl)-4,5-dihydro-1H-pyrazol-1-yl]ethan-1-one] | 111.451
13 | C=CC(=O)NCCC(=O)N1CCC(O)(c2c(F)cccc2F)CC1 [2-B11, N-{3-[4-(2,6-difluorophenyl)-4-hydroxypiperidin-1-yl]-3-oxopropyl}prop-2-enamide] | 94.519
14 | Cc1c(C#N)c(NC(=O)CCl)n(Cc2cccs2)c1C [4-C04, 2-chloro-N-{3-cyano-4,5-dimethyl-1-[(thiophen-2-yl)methyl]-1H-pyrrol-2-yl}acetamide] | 112.487
15 | CCc1nc(C2CCCN2C(=O)CCl)no1 (stereo not drawn) [5-C08, 2-chloro-1-[2-(5-ethyl-1,2,4-oxadiazol-3-yl)pyrrolidin-1-yl]ethan-1-one] | 101.04
16 | CCn1nc(C)c(CNC(=O)CCl)c1C [7-P10, 2-chloro-N-[(1-ethyl-3,5-dimethyl-1H-pyrazol-4-yl)methyl]acetamide] | 85.1148
17 | Cl.O=C(CCl)NCc1ccccc1CN1CCOCC1 [5-L06, 2-chloro-N-({2-[(morpholin-4-yl)methyl]phenyl}methyl)acetamide hydrochloride] | 100.704
18 | N#CC(=Cc1cccc2ccccc12)C(=O)Nc1ccccc1Cl [8-K11, N-(2-chlorophenyl)-2-cyano-3-(naphthalen-1-yl)prop-2-enamide] | 71.9918
19 | Cc1cc(NC(=O)CCl)n(-c2ccccc2)n1 [4-G05, 2-chloro-N-(3-methyl-1-phenyl-1H-pyrazol-5-yl)acetamide] | 102.825
20 | CN1C(=C(C#N)C(=O)CCl)Sc2ccccc21 [10-G08, 4-chloro-2-(3-methyl-2,3-dihydro-1,3-benzothiazol-2-ylidene)-3-oxobutanenitrile] | 91.954
21 | O=C(CCl)Nc1ccc(C(=O)O)cc1[N+](=O)[O-] [4-C21, 4-(2-chloroacetamido)-3-nitrobenzoic acid] | 106.103
22 | COCCNC(=O)C(C#N)=Cc1cccc2ccccc12 [8-L12, 2-cyano-N-(2-methoxyethyl)-3-(naphthalen-1-yl)prop-2-enamide] | 67.913
23 | C=CC(=O)N1CCOC(c2ccccc2)C1 (stereo not drawn) [2-I07, 1-(2-phenylmorpholin-4-yl)prop-2-en-1-one] | 92.203

Row | SMILES | % of control remaining [%]
24 | CC(Cl)C(=O)N(Cc1ccco1)C1CCN(C)CC1 (stereo not drawn) [7-L17, 2-chloro-N-[(furan-2-yl)methyl]-N-(1-methylpiperidin-4-yl)propanamide] | 81.0177
25 | Cc1c(NC(=O)CCl)c(=O)n(-c2ccccc2)n1C [5-G17, 2-chloro-N-(1,5-dimethyl-3-oxo-2-phenyl-2,3-dihydro-1H-pyrazol-4-yl)acetamide] | 99.8634
26 | C=CC(=O)NC1(c2nc(C)no2)CC1 [3-L09, N-[1-(3-methyl-1,2,4-oxadiazol-5-yl)cyclopropyl]prop-2-enamide] | 92.2661
27 | C=CC(=O)Nc1ccc2ccn(CCN(C)C)c2c1 [1-L21, N-{1-[2-(dimethylamino)ethyl]-1H-indol-6-yl}prop-2-enamide] | 90.583
28 | C=CC(=O)N1CCOC(Cn2nc(C)nc2C)C1 (stereo not drawn) [1-B09, 1-{2-[(3,5-dimethyl-1H-1,2,4-triazol-1-yl)methyl]morpholin-4-yl}prop-2-en-1-one] | 86.2481
29 | CC(Cl)C(=O)Nc1ccc(Cc2nnc3ncccn23)cc1 (stereo not drawn) [7-O22, 2-chloro-N-[4-({[1,2,4]triazolo[4,3-a]pyrimidin-3-yl}methyl)phenyl]propanamide] | 91.0623
30 | Cc1ccccc1NC(=O)C(C#N)=Cc1cc(C)n(C2CC2)c1C [8-A16, 2-cyano-3-(1-cyclopropyl-2,5-dimethyl-1H-pyrrol-3-yl)-N-(2-methylphenyl)prop-2-enamide] | 55.4045
31 | C=CC(=O)NC(C)C1(S(C)(=O)=O)CC1 (stereo not drawn) [2-P05, N-[1-(1-methanesulfonylcyclopropyl)ethyl]prop-2-enamide] | 100.232
32 | C=CC(=O)N1CCC(C(=O)Nc2ccc(CC)cc2)CC1 [3-J12, N-(4-ethylphenyl)-1-(prop-2-enoyl)piperidine-4-carboxamide] | 87.3259
33 | CC(Cl)C(=O)N1CCC(NS(=O)(=O)c2cccs2)CC1 (stereo not drawn) [7-L07, N-[1-(2-chloropropanoyl)piperidin-4-yl]thiophene-2-sulfonamide] | 81.1498
34 | C=CC(=O)N1CCOC(c2cnn(C)c2)C1 (stereo not drawn) [3-K11, 1-[2-(1-methyl-1H-pyrazol-4-yl)morpholin-4-yl]prop-2-en-1-one] | 91.3839
35 | Cc1ccc(C=C(C#N)C(=O)Nc2nccs2)o1 [9-P10, 2-cyano-3-(5-methylfuran-2-yl)-N-(1,3-thiazol-2-yl)prop-2-enamide] | 82.053
36 | Cc1ccc(F)c(S(=O)(=O)NCCNC(=O)CCl)c1 [7-P12, 2-chloro-N-[2-(2-fluoro-5-methylbenzenesulfonamido)ethyl]acetamide] | 58.8138
37 | C=CC(=O)NC1CCS(=O)(=O)c2ccc(F)cc21 (stereo not drawn) [2-J19, N-(6-fluoro-1,1-dioxo-3,4-dihydro-2H-1lambda6-benzothiopyran-4-yl)prop-2-enamide] | 93.5926
38 | C=CC(=O)NCCNS(=O)(=O)c1cc(C)sc1C [3-C21, N-[2-(2,5-dimethylthiophene-3-sulfonamido)ethyl]prop-2-enamide] | 110.969
39 | Cc1cccc(NC(=O)c2ccccc2NC(=O)CCl)c1 [4-C10, 2-(2-chloroacetamido)-N-(3-methylphenyl)benzamide] | 97.3043
40 | N#CC(=Cc1ccc(OC(F)F)cc1)C(=O)Nc1ccccc1 [9-G15, 2-cyano-3-[4-(difluoromethoxy)phenyl]-N-phenylprop-2-enamide] | 88.9871
41 | Cc1cc(C(=O)CCl)c(C)n1-c1ccc(C(F)(F)F)cc1 [10-J14, 2-chloro-1-{2,5-dimethyl-1-[4-(trifluoromethyl)phenyl]-1H-pyrrol-3-yl}ethan-1-one] | 98.4999
42 | N#CC(=Cc1c(F)c(F)c(F)c(F)c1F)C(=O)NC1CCCCC1 [8-O15, 2-cyano-N-cyclohexyl-3-(2,3,4,5,6-pentafluorophenyl)prop-2-enamide] | 75.6628
43 | Cc1cc(Cl)ccc1CN1CCN(C(=O)C(C)Cl)CC1 (stereo not drawn) [5-B13, 2-chloro-1-{4-[(4-chloro-2-methylphenyl)methyl]piperazin-1-yl}propan-1-one] | 62.2045
44 | C=CC(=O)N(Cc1nccc2c1CCCC2)C1CCCC(OC)C1 (stereo not drawn) [1-F11, N-(3-methoxycyclohexyl)-N-[(5,6,7,8-tetrahydroisoquinolin-1-yl)methyl]prop-2-enamide] | 81.3154
45 | C=CC(=O)N1CCC(CCO)c2ccccc21 (stereo not drawn) [3-O03, 1-[4-(2-hydroxyethyl)-1,2,3,4-tetrahydroquinolin-1-yl]prop-2-en-1-one] | 111.145
